# The campaign covered roughly 370,000 compounds. About 150 (0.041%) were called active. The inconclusive results got no clear call from the source; some entries with a clear call stand among them for comparison. The call rests on the fitted dose curve; in most records, active means well fitted inhibition curve with a large enough effect; inconclusive means small, poorly fitted or top-dose-only effect; inactive means flat fitted curve, though single readings scatter. No potency is given beside an inconclusive call; the fits are too rough.
# Biological target: Beta-lactamase (Escherichia coli (strain K12)) (UniProt P00811)
# Chain of UniProt P00811 (P00811 whole entry, looked up): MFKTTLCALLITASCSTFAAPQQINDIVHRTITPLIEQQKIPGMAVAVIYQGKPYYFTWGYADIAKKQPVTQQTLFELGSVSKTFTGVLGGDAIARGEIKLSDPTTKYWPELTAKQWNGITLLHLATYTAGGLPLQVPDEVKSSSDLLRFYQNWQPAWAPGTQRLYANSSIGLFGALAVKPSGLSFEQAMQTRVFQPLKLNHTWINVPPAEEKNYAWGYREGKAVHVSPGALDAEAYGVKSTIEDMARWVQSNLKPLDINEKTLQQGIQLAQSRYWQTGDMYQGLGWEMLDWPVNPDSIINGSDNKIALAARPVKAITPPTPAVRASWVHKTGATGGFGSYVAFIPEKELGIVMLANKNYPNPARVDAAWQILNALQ
# Assay: qHTS Inhibitors of AmpC Beta-Lactamase (assay with detergent); further: nearly all actives have a fitted effect of over 25% in size
# Details: AmpC hydrolysis of nitrocefin, absorbance 480 nm, 0.01% Triton; series mostly up to 114 µM
# In short: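 AmpC (5.3 nM in the dispensed reagent) in 20 mM phosphate pH 7.0 with 0.01% (detergent screen) or 0.0001% Triton X-100 was preincubated with compounds for 15 min at room temperature. Nitrocefin was then added from an 800 uM solution, and hydrolysis was followed at 480 nm.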
# Potency means the concentration at half of the fitted maximal effect; tags describe the fitted curve by direction and shape.
row,SMILES,Potency
1,C/C(=N\NC(=O)c1ccc(Cl)c(Cl)c1)c1ccc(Br)s1,"inconclusive [inhibitor, partial curve]"
2,COc1ccc(NC(=S)NC(NC(=O)c2ccc(Cl)cc2Cl)C(Cl)(Cl)Cl)c([N+](=O)[O-])c1 (configuration not stated),"inconclusive [inhibitor, partial curve]"
3,COc1cc(OC)c(N(C)S(=O)(=O)c2cccc(C(=O)OCC(=O)c3c[nH]c4ccccc34)c2)cc1Cl,"inconclusive [inhibitor, single point]"
4,N#Cc1sc(NCc2ccccn2)nc1Cl,"inconclusive [inhibitor, full curve, poor fit]"
5,CCOC(=O)CSc1nnc([C@H](C)NC(=O)OC(C)(C)C)o1,"inconclusive [inhibitor, partial curve]"
6,COC(=O)C1=C(c2ccc(OC(F)(F)F)cc2)C[C@@H]2CC[C@H]1N2C(=O)NCCc1ccccc1,inactive
7,Cc1ccccc1-n1c(SCC(=O)c2c(N)n(C3CC3)c(=O)[nH]c2=O)nnc1N1CCOCC1,"inconclusive [inhibitor, single point]"
8,O=C(Nc1ccccc1)OCCOc1ccccc1,"inconclusive [inhibitor, full curve, poor fit]"
9,Cc1cc(-c2ccc(C(C)C)c(S(=O)(=O)N3CCN(c4ccccn4)CC3)c2)on1,inactive
10,Cc1ccccc1C(=O)Nc1ccc(C(=O)N/N=C/c2ccncc2)cc1,"inconclusive [inhibitor, single point]"
11,CC(C)(C)c1csc(N/N=C/c2ccc(O)cc2)n1,inactive
12,COc1ccc2c(c1)O[C@H](c1ccc3c(c1)OCO3)[C@@H](OC(=O)Nc1cc(OC)c(OC)c(OC)c1)C2=O,"inconclusive [inhibitor, partial curve, poor fit]"
13,O=C(NCc1cccnc1)c1ccc(S(=O)(=O)N2CCOCC2)cc1,"inconclusive [inhibitor, full curve, poor fit]"
14,Cc1ccc(-c2cn3c(n2)sc2cc(C(=O)NCCCc4ccccc4)ccc23)c(C)c1,inactive
15,COc1ccc(C(=O)N2CCN(c3ccccn3)CC2)cc1,"inconclusive [inhibitor, full curve, poor fit]"
16,COc1ccccc1NC(=O)c1ccc(S(=O)(=O)N2CCCC2)cc1,inactive
17,CCCc1cc(C(=O)Nc2ccc(C(=O)OC)cc2)cs1,"inconclusive [inhibitor, partial curve, poor fit]"
18,COc1cc(/C=C2/C(=O)NN(c3ccc(Cl)cc3)C2=O)ccc1OC(=O)c1ccco1,"inconclusive [inhibitor, single point]"
19,O=C1Nc2ccccc2C12OCC1(CO2)COC2(OC1)C(=O)Nc1ccccc12 (configuration not stated),"inconclusive [inhibitor, full curve, poor fit]"
20,Cc1cc(NC(=O)COc2ncnc3sc(C)c(C)c23)no1,"inconclusive [inhibitor, partial curve, poor fit]"
21,O=S(=O)(Cc1cc(-c2ccccc2Cl)no1)c1ccccc1,inactive

row,SMILES,Potency
1,CCOc1ccc(-n2c(SCC)nc3c(c2=O)SCC3)cc1,inactive
2,O=c1c2c(nc3c(-c4ccccc4)c[nH]n13)CCCC2,"inconclusive [inhibitor, full curve, poor fit]"
3,O=C(NCc1cccs1)C1CCCN(S(=O)(=O)c2cccs2)C1 (configuration not stated),inactive
4,O=S(=O)(c1cccc2ccccc12)N1CCN(c2ccc(Cl)c(Cl)c2)CC1,inactive
5,CCOC(=O)N1CCC(NC(=O)CSCc2nc(-c3ccc(OC)cc3)oc2C)CC1,"inconclusive [inhibitor, partial curve]"
6,Cc1csc(SCC(=O)Nc2cc([N+](=O)[O-])ccc2F)n1,"inconclusive [inhibitor, full curve, poor fit]"
7,CCOc1ccc2[nH]c(=O)c(CN(CC3CCCN3CC)C(=O)NCc3ccccc3)cc2c1 (configuration not stated),"inconclusive [inhibitor, full curve, poor fit]"
8,O=C(Cn1cc(S(=O)(=O)c2ccccc2)c(=O)c2cc(Cl)ccc21)Nc1ccc2c(c1)OCO2,inactive
9,O=C(/C=C/c1cccs1)Nc1ccncc1,"inconclusive [inhibitor, full curve]"
10,COc1ccc(-c2cc(C(F)(F)F)nc(SCC(=O)NCC(C)C)n2)cc1OC,inactive
11,Cc1ccc(CNC(=O)c2ccc(CS(=O)Cc3cccc(Cl)c3)o2)cc1 (configuration not stated),"inconclusive [inhibitor, partial curve, poor fit]"
12,Cc1ccc(Nc2c(-c3ccccn3)nc3cc(C)ccn23)cc1,"inconclusive [inhibitor, single point]"
13,O=C(N=C1SC2CS(=O)(=O)CC2N1Cc1ccccc1)C1CCCCC1 (configuration not stated),"inconclusive [inhibitor, full curve, poor fit]"
14,O=C(NCC(c1ccco1)N1CCCC1)c1ccccc1Sc1ccc(C(F)(F)F)cc1[N+](=O)[O-] (configuration not stated),"inconclusive [inhibitor, full curve]"
15,Cc1ccc(S(=O)(=O)NCC(=O)OC(C)C(=O)NC(=O)NC2CCCCC2)cc1C (configuration not stated),inactive
16,CCCCNS(=O)(=O)c1ccc(NC(=O)C2c3ccccc3Oc3ccccc32)cc1,"inconclusive [inhibitor, full curve, poor fit]"
17,CCC1CCCCN1C(=O)CN1C(=O)c2ccccc2S1(=O)=O (configuration not stated),inactive
18,O=C(C1COc2ccccc2O1)N1CCN(c2ccccc2O)CC1 (configuration not stated),"inconclusive [inhibitor, single point]"
19,CCN(CC(=O)NCc1ccco1)S(=O)(=O)c1ccc(OC)cc1,"inconclusive [inhibitor, full curve]"
20,CC/C(=N\Nc1ccc([N+](=O)[O-])cc1[N+](=O)[O-])c1ccc(O)cc1,inactive
21,COc1ccc2sc3c(=O)[nH]c4ccccc4c3c2c1,"inconclusive [inhibitor, full curve, poor fit]"
